This is one part of the list. At the low end of the ranking, values are background and their order means little.
Biological target: T1, GST-Rok-C97-191 (UniProt O34857)
T1 sequence: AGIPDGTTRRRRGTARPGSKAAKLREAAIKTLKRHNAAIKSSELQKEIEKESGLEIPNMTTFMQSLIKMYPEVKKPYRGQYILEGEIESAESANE
Assay: protein binding microarray;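 further: rank score from −0.5 (least bound) to 0.5 (best bound)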
Settings: Rok is a gene silencer of Bacillus subtilis; high values mean tight binding; most listed sequences are background and not binding sites; double strand, one strand shown

Sequence	binding signal [E-score]
ACTAGTGC	0.167
ACCTATGA	0.0848
ATCTGGTG	-0.0403
AAAGACAA	-0.0239
AGCATGTA	0.263
AGAACTTG	0.124
GGCATCAC	0.00707
GACACGAA	-0.192
CGTCAGGA	-0.21
CAGTTCCG	-0.148
GTCTATAA	0.0588
CAGGCAAA	-0.171
CTGCCCGA	-0.19
ACGGGTAT	-0.0487
AGAAAGAG	-0.0851
CACCGGGC	-0.309
GGACAACC	-0.164
CTGAGAGA	-0.0135
ACCTGGCT	-0.198
CCAAGGAG	-0.303
AGAGCTCC	-0.142
GCTAAGAC	-0.164
ATCCTATA	0.21
AACCATGA	0.081
GAACCTCA	-0.138

Sequence	binding signal [E-score]
ATGGAGAC	0.0287
CTGGTCGA	-0.0276
ACATACGT	0.00445
CCTTGCGA	-0.27
CAACCTCC	-0.157
CGCGGAAG	-0.191
GGAGAGAC	-0.15
ACACTAGG	0.0693
CACTACGA	0.123
GTAACGCA	-0.149
GAGTAGAA	0.279
ATACTATG	0.254
ACTAGGAG	0.0702
CCACCCGC	-0.234
CAACACCA	-0.0858
CAAAGAAG	-0.145
GCGGGTAA	-0.249
CTAGCCGC	-0.192
ACCATTTC	0.248
AATGAGGG	-0.0785
ACACCCAG	-0.238
CTGTTTTC	0.111
ATTGCTAA	0.199
GGTCGCCA	-0.245
ATCAAGTG	0.188

Sequence	binding signal [E-score]
GCATACAA	0.0678
GTACTCCA	-0.0636
CCGCGTCA	-0.0739
AACGTTGG	-0.174
CTTGTCCC	-0.25
GCGTCGCA	0.0802
CCTCACAA	0.0274
AACGGCGG	-0.015
GAGCTGAA	-0.0846
CCAAACGA	0.0883
AGTACTCA	-0.0984
AATCTTTC	0.119
CAGACGAG	-0.236
ATGCGCGG	-0.168
ATGACCGA	0.146
AAGTATGG	0.128
GAACTTCC	-0.145
CGTCGCTC	-0.161
CAACAATA	0.077
ACTTGTAC	0.208
CATCTAGG	-0.0436
AGTACGTC	-0.083
TAGAACAA	0.216
ATGGAGTG	0.0412
GCGTGTGA	-0.00575

Sequence	binding signal [E-score]
AACCCCAC	-0.2
CCGGACGA	-0.115
CAATCAGC	-0.197
ACCATGAA	-0.000363
GGTTCCAA	-0.217
TCAAACGA	-0.00908
GGGTGAAC	0.0811
CGATCCCC	-0.302
AAGCATTG	0.0589
AAGGTCCA	-0.107
CTTGAATA	-0.0952
GTGGCTCA	-0.084
CAGTGAAA	-0.0948
CGTCCAAA	-0.158
AATGGCAA	0.039
CTAAAGCC	-0.127
GATGATAA	0.0651
GTTAAGAA	0.0875
ATCTCTCG	-0.0528
ATGTGGGG	-0.0516
CGTTTTAG	0.0423
CTCAGTGA	-0.0652
AGGGAATA	-0.0692
CACTCATC	-0.0404
CAGGGTCA	-0.0737

Sequence	binding signal [E-score]
CCTACCTA	0.166
TACAGAGA	0.102
CAATGAGG	-0.135
ACCTCGCA	0.0431
CGCTGTAG	0.0107
CGGGTATC	0.00348
TCCACTAA	0.126
GCTGCTAC	0.0824
AGTGGGAG	-0.139
CGGTCAGC	-0.297
GTGTATTA	0.11
AGTCCTGA	-0.163
CATTATAC	0.177
AGAGTGAT	-0.00889
AGACACCC	0.0829
GCTGGAAA	-0.0362
ATGGCTGG	-0.117
AGTCGGCG	-0.226
CTGTCTCC	-0.29
ACGTACCG	-0.062
AAAGGCCC	-0.199
CGAACTTC	0.105
ACCTTTTA	0.118
AGAACGTC	0.0063
CAACCAAA	-0.0777

Sequence	binding signal [E-score]
AACCGTCT	-0.00298
AATTGTGC	-0.0187
AACCAGAT	0.0122
ATTAATAG	0.261
GATGCGCA	-0.00409
ATTCGTGG	-0.106
CACAACTA	0.199
ATGTTTCG	0.143
CTAGGATA	0.144
AGAATCTC	0.0267
GATGAATC	-0.0753
ACGAAAGA	0.0386
GGGTTACC	-0.178
AGTATCAG	-0.0283
GATTCGGA	0.106
AGAATACC	-0.0379
AGCTTTCC	-0.077
AATACCTA	0.27
AGCCCAAC	-0.251
AAGATCCT	0.0236
GAACGCTC	-0.152
CCTGACCA	-0.111
ATGCGACA	-0.166
AAGCCAAG	-0.0632
CATGCGGG	-0.144

Sequence	binding signal [E-score]
TCTGCGCA	-0.0307
CGGTGCAA	0.0152
AGTGGGGG	-0.213
TACATCGA	0.231
GAGCCAGA	-0.149
CAACTCTA	0.127
CGGTTATC	-0.0737
TACCCACA	0.0202
AACTTGGC	-0.0638
CCGACGAC	-0.216
ACCAACAC	0.0682
TCATTGCA	-0.14
CAATTGGC	-0.0983
ATACATTA	0.275
ATTACGTG	0.144
ACTGCGAG	0.0579
AGGTGTAG	0.13
CAGCCCCG	-0.308
ACTTCAGC	0.167
AGACATCT	0.03
CTCCAGAG	-0.172
AGTCGCGC	0.0627
ACCTTTAG	-0.0786
GCTTGCAA	-0.00333
GAAAAAAA	0.0944

Sequence	binding signal [E-score]
CACCAAGC	-0.0373
AACCGATG	-0.279
GATATAAA	0.34
GAAGATTC	0.0351
AGACCGAC	0.017
TTACCCAA	0.146
CAGTACGA	-0.0294
GAATGGAC	-0.0916
ATTGTTCA	0.0705
AATGCAAG	-0.125
CCACATCG	-0.0124
ACTCTACT	0.273
CTCGTGAA	-0.298
ATAGCGGA	0.0158
AGAGAAAC	0.0619
ATGTCAGG	-0.165
ACGGTGTA	-0.00348
TCTGCAAA	-0.126
ACATCGAC	-0.00506
ACCAGCGA	0.0716
CGCGACCG	-0.251
AGTAGCGC	0.0952
GTACCTCA	0.0999
CCCCTACG	-0.368
TATCCCAA	0.0173

Sequence	binding signal [E-score]
CCGTTCGC	-0.19
CATAAAGG	-0.0425
GTAGTCGA	0.166
CAACTCCG	-0.0429
CTAGATAA	0.3
AGTCGTTA	-0.0639
CCTAAGCC	-0.202
AAACAGTT	0.203
TCGTAGCA	0.116
CCGGGGCG	-0.367
AGGCGCCG	-0.245
AAATGCGA	0.101
AATTAAAT	0.276
ACGACCAT	-0.0437
CGCTCCTC	-0.274
GATAGTGC	0.0589
AAACGGCG	0.0819
CATTAGTA	0.26
ATATCCGC	0.116
AAACGATT	0.0508
GAAACAAC	0.00876
GAGGAAGC	-0.106
GCCTTGAC	-0.199
GTCGGCCA	-0.102
ATTTGTTG	-0.00722

Sequence	binding signal [E-score]
CAGTCAGG	-0.252
CAAACCCG	-0.153
AAGTTACA	0.205
AAAGACTG	-0.218
CCGAAGAA	0.164
ACGAGCGG	-0.169
ACACACGA	0.0273
CGCCTGAG	-0.129
ACAGGGGG	-0.359
CGGAAGAG	-0.0946
ATGCGCCC	-0.183
GCGCGCTA	0.237
ATTGGTGG	-0.106
GGATAGTA	0.142
AGTGGTAA	0.203
CTCCCCAC	-0.342
CATATTCC	0.0183
AAGGCAAA	-0.101
AACCACAT	-0.0536
CCAGGAGG	-0.243
CCCGCTCC	-0.108
AAATAGAT	0.343
TGGTAACA	0.162
AGATCGAA	0.0101
GCAGGGGC	-0.225

Sequence	binding signal [E-score]
ACACGCAA	0.0721
AGAGGGGC	-0.398
CAGTCAAC	-0.0828
CACAGCCA	-0.0441
GCTCCAAC	-0.195
ACTAATAG	0.292
ATGAGAAT	0.178
ACGGGGTA	0.0665
AACAAGAT	-0.0656
ACAATATA	0.354
AAACTATA	0.398
ACTATACA	0.302
AAGCCTAG	-0.147
GACAGGGC	-0.2
CAATTGTC	-0.103
AATCAATG	-0.036
CGTGTCCC	-0.238
CTTCTGAC	-0.0313
GACAGGTC	-0.216
AGCCAATA	-0.0503
TCAACACA	-0.0365
AACACCGT	0.102
CTTATAAC	0.115
AGAAAAAG	0.0316
CCTCGTCA	-0.257

Sequence	binding signal [E-score]
AAATAACC	0.131
AACCTTGA	0.00629
CCGGTACG	-0.0992
CGATCGCC	-0.0138
CAGTCCCG	-0.167
AAGAATTA	0.135
TAAGTGAA	0.148
CGGGGAGA	-0.275
CCCTGATC	-0.168
ATCCAATA	0.111
CTGTGCCC	-0.153
CAATTTAG	0.232
ATCAGAGA	-0.00791
ACTCCGGC	0.0565
TCCGTCCA	-0.19
CCCCAAGG	-0.269
AAAATACT	0.371
CCGGGGAA	-0.0535
CCAATTTC	0.133
TAGTGCGA	0.0718
ACCCTCTA	-0.122
ATACTCAG	0.0439
CAGATGAC	-0.0635
CCAGCATC	0.0564
TAGTGGCA	0.104

Sequence	binding signal [E-score]
GTGCTAAC	0.00834
GATTCCGA	0.0368
GATTGGTA	0.202
AAATCCAA	0.127
CCAGCCGA	0.0252
CGACTAAG	-0.112
CACGGCAC	-0.0947
ATAAGTTC	0.228
CGCTATCA	0.0552
ACCTGTGC	-0.159
CCCATATA	0.107
AGTGTTGG	-0.0462
GACTCGGC	-0.2
AAGTACTG	0.145
CCGGAAGG	-0.206
AGTGGCAT	-0.0354
ACATTGAC	0.0683
CAACGAAA	0.00998
GCCTGAGA	-0.17
AATATCAC	0.297
AATGGGAG	-0.0166
ATTACAAT	0.262
AGAAACCT	0.236
CTTTACCC	-0.188
GAGCATCC	-0.22

Sequence	binding signal [E-score]
CGATGAAA	-0.165
GCGCTAGC	0.00413
ATAATCCC	-0.0844
ACGCCGTC	0.0323
CGGCTCAC	-0.277
ACAGTGAC	0.0755
CTAGCGGA	0.0679
AAGCGTGT	-0.00149
AGCGGTCC	-0.154
CCGGGACG	-0.279
CCACTGAA	-0.0731
ATAAACTG	0.199
AGCGCTTC	-0.0803
AATCTAAA	0.167
CAGCTAAC	-0.000593
CTCAGCCC	-0.142
GAATAGGC	-0.222
AACAGGAC	0.0173
ATGTAAAT	0.373
